{"source": "paper PMC4336329", "about": "(PLoS ONE, 2015)", "note": "About 2,200 (0.71%) of roughly 310,000 compounds showed an effect of 50% or more. The effect is printed as a negative number. Some of the results follow."}
{"molecular_target": "human ether-à-go-go-related gene (hERG) potassium channel (human, UniProt Q12809)", "sequence (Q12809 whole entry, looked up)": "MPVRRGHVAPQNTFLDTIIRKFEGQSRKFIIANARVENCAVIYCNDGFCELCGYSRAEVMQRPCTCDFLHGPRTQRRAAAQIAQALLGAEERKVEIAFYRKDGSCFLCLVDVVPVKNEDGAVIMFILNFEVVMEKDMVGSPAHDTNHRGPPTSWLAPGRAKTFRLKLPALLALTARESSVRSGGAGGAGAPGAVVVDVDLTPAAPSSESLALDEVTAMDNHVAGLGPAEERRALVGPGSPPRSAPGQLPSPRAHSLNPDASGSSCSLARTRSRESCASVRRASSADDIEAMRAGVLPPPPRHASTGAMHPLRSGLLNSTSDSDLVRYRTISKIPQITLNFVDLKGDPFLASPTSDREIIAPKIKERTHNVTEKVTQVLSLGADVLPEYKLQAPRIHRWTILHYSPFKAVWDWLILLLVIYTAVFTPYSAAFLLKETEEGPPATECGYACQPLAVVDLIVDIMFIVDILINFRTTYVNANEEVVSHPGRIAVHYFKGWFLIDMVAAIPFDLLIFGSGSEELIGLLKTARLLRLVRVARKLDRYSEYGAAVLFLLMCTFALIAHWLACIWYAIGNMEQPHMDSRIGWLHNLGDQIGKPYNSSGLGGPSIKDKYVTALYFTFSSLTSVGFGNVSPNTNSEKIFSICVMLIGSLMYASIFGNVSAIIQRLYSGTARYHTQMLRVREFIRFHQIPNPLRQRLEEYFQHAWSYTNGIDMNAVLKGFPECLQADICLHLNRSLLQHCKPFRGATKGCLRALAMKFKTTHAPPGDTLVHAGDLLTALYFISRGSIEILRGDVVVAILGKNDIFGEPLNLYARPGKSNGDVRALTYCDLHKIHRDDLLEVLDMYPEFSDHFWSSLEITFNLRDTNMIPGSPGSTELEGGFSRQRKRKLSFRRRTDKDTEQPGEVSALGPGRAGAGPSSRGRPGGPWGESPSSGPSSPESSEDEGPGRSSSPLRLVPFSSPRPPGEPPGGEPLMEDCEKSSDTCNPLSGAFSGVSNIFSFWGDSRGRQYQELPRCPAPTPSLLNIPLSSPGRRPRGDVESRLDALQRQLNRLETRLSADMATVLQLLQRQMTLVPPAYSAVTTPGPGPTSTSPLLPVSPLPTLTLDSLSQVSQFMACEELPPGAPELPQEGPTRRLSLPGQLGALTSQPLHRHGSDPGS", "experiment": "primary screen, population patch clamp on CHO cells stably expressing hERG", "units": {"hERG current change (%, negative = inhibition) at 1uM": "%"}}
{"smiles": "O=C(Cc1cccs1)NCc1cccs1", "hERG current change (%, negative = inhibition) at 1uM": -9.86}
{"smiles": "COc1ccc(CNS(=O)(=O)c2ccc3c(c2)CCN3C(=O)C2CCC2)cc1", "hERG current change (%, negative = inhibition) at 1uM": 13.7}
{"smiles": "O=C(CN(c1ccccn1)S(=O)(=O)c1ccccc1)N/N=C/c1cccc([N+](=O)[O-])c1", "hERG current change (%, negative = inhibition) at 1uM": 9.13}
{"smiles": "CC1(c2ccc([N+](=O)[O-])cc2)Nc2ccccc2S1", "note": "(stereo not shown)", "hERG current change (%, negative = inhibition) at 1uM": 10.9}
{"smiles": "O=C(COC(=O)Cc1c[nH]c2ccccc12)Nc1c(Cl)cccc1C(F)(F)F", "hERG current change (%, negative = inhibition) at 1uM": 4.18}
{"smiles": "CCOc1cc(S(=O)(=O)N2CCN(C(=O)c3ccco3)CC2)ccc1F", "hERG current change (%, negative = inhibition) at 1uM": -4.55}
{"smiles": "CCOc1cc(C(=O)NCc2ccc3c(c2)OCO3)cc(OCC)c1OCC", "hERG current change (%, negative = inhibition) at 1uM": 13.8}
{"smiles": "N#Cc1ccc(NC(=O)C2CC(c3ccc(F)cc3)=NO2)cc1", "note": "(stereo not shown)", "hERG current change (%, negative = inhibition) at 1uM": -13.5}
{"smiles": "CCN1CCN(C2=C(NS(=O)(=O)c3ccc(NC(C)=O)cc3)C(=O)c3ccccc3C2=O)CC1", "hERG current change (%, negative = inhibition) at 1uM": 18.3}
{"smiles": "O=C(/C=C(O)/C=C/c1ccc(O)cc1)/C=C/c1ccc(O)cc1", "hERG current change (%, negative = inhibition) at 1uM": 12.4}
{"smiles": "Cc1cc(C)nc(N/N=C/c2ccccc2OCc2ccc(Cl)cc2)n1", "hERG current change (%, negative = inhibition) at 1uM": 4.85}
{"smiles": "Cc1cccc(NS(=O)(=O)c2cc(OCC(N)=O)c(C)cc2Cl)c1", "hERG current change (%, negative = inhibition) at 1uM": 0.155}
{"smiles": "Cc1cc(C)c(C(=O)N2CCCC(Nc3ccc(C)c(C)c3)C2)o1", "note": "(stereo not shown)", "hERG current change (%, negative = inhibition) at 1uM": 53}
{"smiles": "COc1ccc(N2CCN(C(c3cccs3)C(C)NC(=O)C(=O)N3CCCC3)CC2)cc1", "note": "(stereo not shown)", "hERG current change (%, negative = inhibition) at 1uM": -4.23}
{"smiles": "CCN(/N=C/c1ccccc1)c1cc(=O)n(C)c(=O)[nH]1", "hERG current change (%, negative = inhibition) at 1uM": 14}
{"smiles": "C/C(CC(=O)NCc1ccco1)=N\\NC(=O)COc1ccc(Cl)cc1Cl", "hERG current change (%, negative = inhibition) at 1uM": -16.4}
{"smiles": "COc1ccc(-c2cc([C@H]3[C@@H]4C=CCC[C@@]4(C)C(=O)N3Cc3ccccc3)ccc2F)cc1", "hERG current change (%, negative = inhibition) at 1uM": 9.61}
{"smiles": "C[C@@H]1NC(=O)c2cc([N+](=O)[O-])cc(I)c2OCC[C@@H](C(N)=O)NC(=O)[C@H](CCCCN)NC1=O", "hERG current change (%, negative = inhibition) at 1uM": 12.8}
{"smiles": "O=C(COC(=O)c1cnc(Cl)c(Cl)c1)NCCC1=CCCCC1", "hERG current change (%, negative = inhibition) at 1uM": 12.5}
{"smiles": "Cc1cc(C)cc(NC(=O)Nc2ccc(N3CCCCC3)cc2)c1", "hERG current change (%, negative = inhibition) at 1uM": 12.9}
{"smiles": "COCCNc1c([N+](=O)[O-])c(=O)n(-c2ccccc2)c2ccccc12", "hERG current change (%, negative = inhibition) at 1uM": -7.76}
{"smiles": "O=C(CSc1nc2ccc(NC(=O)C3CCCCC3)cc2s1)NCC1CCCO1", "note": "(stereo not shown)", "hERG current change (%, negative = inhibition) at 1uM": 5.19}
{"smiles": "CC(OC(=O)C1CSC2(C)CCC(=O)N12)C(=O)Nc1ccc(F)cc1", "note": "(stereo not shown)", "hERG current change (%, negative = inhibition) at 1uM": 12.9}
{"smiles": "CCCCc1ccc(NC(=O)Nc2c(C)n(C)n(-c3ccccc3)c2=O)cc1", "hERG current change (%, negative = inhibition) at 1uM": -1.3}
{"smiles": "O=C(NC12CC3CC(CC(C3)C1)C2)C1CCCN1C(=O)NC1CCCCC1", "note": "(stereo not shown)", "hERG current change (%, negative = inhibition) at 1uM": 22.9}
{"smiles": "Cc1cc(NC(=O)C(C)SCC(=O)NCc2ccc(F)cc2)no1", "note": "(stereo not shown)", "hERG current change (%, negative = inhibition) at 1uM": 7.93}
{"smiles": "COc1cc(/C(C)=N\\NC(N)=S)cc(OC)c1OC", "hERG current change (%, negative = inhibition) at 1uM": 6.79}
{"smiles": "CCOc1cc2[nH]c(=O)n(CCCCCC(=O)NCc3ccco3)c(=O)c2cc1OCC", "hERG current change (%, negative = inhibition) at 1uM": 6.61}
{"smiles": "CN1CC=C2C(C#N)=C(N)C(C#N)(C#N)C(c3cccc(Cl)c3Cl)C2C1", "note": "(stereo not shown)", "hERG current change (%, negative = inhibition) at 1uM": 5.52}
{"smiles": "Cc1cc(NC(=O)CCC(=O)N(c2ccccc2)C2(C(=O)NC3CCCCC3)CCCC2)no1", "hERG current change (%, negative = inhibition) at 1uM": 10.1}
{"smiles": "COc1ccc(-c2oc3c4c(cc(OC)c3c(=O)c2CC=C(C)C)OC(C)(C)C=C4)c(OC)c1", "hERG current change (%, negative = inhibition) at 1uM": 11.9}
{"smiles": "Cn1c(-c2ccc(F)cc2)cc2onc(-c3ccccc3Cl)c2c1=O", "hERG current change (%, negative = inhibition) at 1uM": 7.6}
{"smiles": "O=C(Cc1c(Cl)cccc1Cl)Nc1cccnc1", "hERG current change (%, negative = inhibition) at 1uM": 13.3}
{"smiles": "COCCCNCCCCOc1ccccc1-c1ccccc1.O=C(O)C(=O)O", "hERG current change (%, negative = inhibition) at 1uM": -10.9}
{"smiles": "CS(=O)(=O)c1ccc(C(=O)OCC(=O)c2ccc(Cl)s2)cc1", "hERG current change (%, negative = inhibition) at 1uM": 7.3}
{"smiles": "CCCC1C(C(=O)OCC)=C(C)NC(C)=C1C(=O)OCC", "hERG current change (%, negative = inhibition) at 1uM": 9.55}
{"smiles": "O=C1C=CC(=C(c2ccc(O)cc2)c2ccc(O)cc2)C=C1", "hERG current change (%, negative = inhibition) at 1uM": 6.2}
{"smiles": "Cc1cccc(NC(=O)CN(CC2CCCO2)C(=O)c2oc3ccc(F)cc3c2C)c1C", "note": "(stereo not shown)", "hERG current change (%, negative = inhibition) at 1uM": -2.57}
{"smiles": "O=C(Nc1ccccn1)c1cc(-c2cccc(Cl)c2)nc2ccccc12", "hERG current change (%, negative = inhibition) at 1uM": 5.1}
{"smiles": "CCOC(=O)c1c(CCl)nc2ccccc2c1C.Cl", "hERG current change (%, negative = inhibition) at 1uM": -0.294}
{"smiles": "CC(NC(=O)c1cccs1)C(c1cccs1)N1CCOCC1", "note": "(stereo not shown)", "hERG current change (%, negative = inhibition) at 1uM": 11.9}
{"smiles": "Cc1ccnc(N2CCC(C(=O)Nc3ccc4c(c3)OCCO4)CC2)n1", "hERG current change (%, negative = inhibition) at 1uM": 8.06}
{"smiles": "C=CCN1C(=O)/C(=C2/Sc3ccccc3N2C)SC1=Nc1c(C)n[nH]c1C", "hERG current change (%, negative = inhibition) at 1uM": 6.45}
{"smiles": "Cc1nonc1NC(=O)CSc1nc2cc(Cl)ccc2c2c1CCCC2", "hERG current change (%, negative = inhibition) at 1uM": 6.01}
{"smiles": "CCn1nc(C)c(CNC(=O)C2CCC(=O)N(Cc3cccc(F)c3)C2)c1C", "note": "(stereo not shown)", "hERG current change (%, negative = inhibition) at 1uM": 17.5}
{"smiles": "CCCCn1c(=O)[nH]c(=O)c2c1nc(-c1ccc(-c3ccccc3Br)o1)n2CCOC", "hERG current change (%, negative = inhibition) at 1uM": 14.9}
{"smiles": "CCCCCCC(=O)N/N=C/c1ccco1", "hERG current change (%, negative = inhibition) at 1uM": 5.51}
{"smiles": "Oc1ccc(C=NCCc2ccccc2)cc1", "hERG current change (%, negative = inhibition) at 1uM": 8.66}
{"smiles": "Cc1cc(C(=O)NCC(=O)Nc2c(C)cccc2C)c2ccccc2n1", "hERG current change (%, negative = inhibition) at 1uM": 13.3}
{"smiles": "N#Cc1nc(COc2ccccc2)oc1N1CCN(Cc2ccccc2)CC1", "hERG current change (%, negative = inhibition) at 1uM": -3.01}
{"smiles": "CCOC(=O)C1(Nc2nccs2)Sc2ccccc2NC1=O", "note": "(stereo not shown)", "hERG current change (%, negative = inhibition) at 1uM": -1.04}
{"smiles": "COc1ccc(Cl)c(Cn2c(NCc3ccco3)nc3c2c(=O)n(C)c(=O)n3C)c1", "hERG current change (%, negative = inhibition) at 1uM": 15.8}
{"smiles": "CCc1ccccc1NC(=O)c1cc(C2CC2)on1", "hERG current change (%, negative = inhibition) at 1uM": 0.142}
{"smiles": "O=C1Nc2ccccc2C1C(C[N+](=O)[O-])c1ccccn1", "note": "(stereo not shown)", "hERG current change (%, negative = inhibition) at 1uM": 13.9}
{"smiles": "CCCCCCn1c(=O)[nH]c2nc3cc(N)ccc3nc2c1=O", "hERG current change (%, negative = inhibition) at 1uM": 8.89}
